We go through 167 variants from the RNAGym collection of RNA variant scans (doi:10.1073/pnas.2313332121).

Variants at the floor of the assay are shown more often than the library holds them.

First the molecules themselves.
B1: TPR 5TU (parent)
chain: GGAUCUUCUCGAUCUAACAAAAAAGACAAAUCUGCCACAAAGCUUGAGAGCAUCUUCGGAUGCAGAGGCGGCAGCCUUCGGUGGCGCGAUAGCGCCAACGUUCUCAACUAUGACACGCAAAACGCGUGCUCCGUUGAAUGGAGUUUAUCAUG

The variants in this data set derive from B1. Briefly: polymerase ribozyme fitness, log enrichment relative to wild type (log ratio); higher = more active; in vitro selection for triplet polymerase activity. In a few lines:
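For each subunit of a heterodimeric triplet polymerase ribozyme, a mutant library was built by PCR and transcribed, then taken through a single in vitro selection round in triplicate. Selection involved annealing to a biotinylated primer, the partner subunit and triplets, incubation frozen at −7 °C, gel excision of extended constructs, capture on streptavidin beads and RT-PCR. Genotypes were retained after Illumina sequencing of inputs and outputs only with ≥10 input reads and ≥1 read in each output. Fitness is defined as the logarithm of a genotype's enrichment relative to wild-type enrichment, using inverse-variance-weighted averages across replicates, with the logarithm taken to base 2.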
Turning to C75G C85A, the “polymerase ribozyme fitness (log ratio)” value is not above -4.2.
Under G74A A89U C103G A138C stands not above -4.2.
For C72G C87A A91G A106U A110C C116U A142C the value was not above -4.2; for G71U C76U G84C G92U A98G G117A A122U U146A, not above -4.2; for C76G G143A, not above -4.2.
Under C72G G83A G100A stands not above -4.2; under C72A C85G G133U, not above -4.2; under G74A U77C C85G A115U G140A, not above -4.2.
As to G74U G80U U90G C129G, the “polymerase ribozyme fitness (log ratio)” value is not above -4.2.
As for C75U G88C C118U A121U, the “polymerase ribozyme fitness (log ratio)” value was not above -4.2.
Under C76A C87U G140U stands not above -4.2; under C75G C76A G92U, not above -4.2.
As to G74A G92C, the “polymerase ribozyme fitness (log ratio)” value is -2.84.
For C72A U90G C95G C105U C123U G141U, the “polymerase ribozyme fitness (log ratio)” value was not above -4.2.
Under G74U C75U G84C C93U G141A stands not above -4.2; under C75A A91G A98U G100C G124C A142C, not above -4.2.
Under A73U G84U A120G G140A U144G stands not above -4.2; under C76U C85A G136C, not above -4.2; under A73C C93G U104A C125U, not above -4.2.
In the case of G74A C85G C87U C123A, the “polymerase ribozyme fitness (log ratio)” value is not above -4.2.
Under A73U C76G G86A G140U stands not above -4.2; under A73G A91U A97G U101G C118A G141A, not above -4.2.
Consider C75U G88A, for which the “polymerase ribozyme fitness (log ratio)” value is not above -4.2.
For A73G G84C C96U C114U the value was not above -4.2; for G74C C93A U151C, not above -4.2.
For C76G C85G G92A A120C C129U the value was not above -4.2; for A73U G84A C108G G141A U145C, not above -4.2.
For C76U C99G the value was -0.789; for C76G U135C, not above -4.2.
Take C76A C87G C93U: the “polymerase ribozyme fitness (log ratio)” value was not above -4.2.
For C75U G83U C125A G128A A142U the value was not above -4.2; for G74U G94A C103A C105G A113U G133A G136A G141U, not above -4.2.
Turning to A73G G92A C99G G141U, the “polymerase ribozyme fitness (log ratio)” value is not above -4.2.
As for C76A G88U C96U A98G A107G A119C G124A, the “polymerase ribozyme fitness (log ratio)” value was not above -4.2.
Under C76A G84A G126A C149G stands not above -4.2.
With G74U C76A, the “polymerase ribozyme fitness (log ratio)” value was not above -4.2.
In the case of C75U C87A C125G G141A, the “polymerase ribozyme fitness (log ratio)” value was not above -4.2.
Under A73G U90G stands not above -4.2; under C76A A91C G128C G143A, not above -4.2.
As for A73U C95U G140A A142C, the “polymerase ribozyme fitness (log ratio)” value is not above -4.2.
Under A73U C76U C99U C105G G140A stands not above -4.2; under C76A U78C C87A G88C A120U, not above -4.2.
C72U A73C A98G C118A G124C U135C U139A: the “polymerase ribozyme fitness (log ratio)” value is not above -4.2.
As to C75G G80C C93U A120C A147U, the “polymerase ribozyme fitness (log ratio)” value is not above -4.2.
Under G74A G80U C93A C125A stands not above -4.2; under C72G C93G C95U C118G A138C U145A, not above -4.2.
On to A73U C108A A110C G133A, for which the “polymerase ribozyme fitness (log ratio)” value is not above -4.2.
Under G74C C105G C116G stands not above -4.2; under G71C U82A C85G U146G A150C, not above -4.2.
For A73G C87G A138U the value was not above -4.2.
As for C75A C96G A107U A142U, the “polymerase ribozyme fitness (log ratio)” value was not above -4.2.
Turning to A73U G83U A122C U127A, the “polymerase ribozyme fitness (log ratio)” value is not above -4.2.
Regarding C75G C85U C95G C149G, the “polymerase ribozyme fitness (log ratio)” value is not above -4.2.
For A73G G88C the value was not above -4.2; for C75G G124U G133U U145A, not above -4.2.
In the case of G74C C96U C129G G140U U148C, the “polymerase ribozyme fitness (log ratio)” value was not above -4.2.
With A73U G81A A89G G94U A121U, the “polymerase ribozyme fitness (log ratio)” value is not above -4.2.
For C76G G80A C87A A119U, the “polymerase ribozyme fitness (log ratio)” value was not above -4.2.
For A73C G94A the value was not above -4.2; for G74C C79U G88U U109A A119G G140C, not above -4.2.
Under G74A A91C A115U G141A A147C U148G stands not above -4.2; under C72A C125U, not above -4.2; under C75U G92C U109A U146G, -3.93.
For G74U G94C U127G A150G the value was not above -4.2.
With G74A G88C C116G, the “polymerase ribozyme fitness (log ratio)” value is not above -4.2.
As for G74A C85A U90C G141A U148C, the “polymerase ribozyme fitness (log ratio)” value is not above -4.2.
Under C75A C85U C96A G117A stands not above -4.2; under C76A C87G U90A C103A U134A, not above -4.2.
For the variant C76A G92U C93U A122U G141A U145C A150C, the “polymerase ribozyme fitness (log ratio)” value was not above -4.2.
Under C76A C85A A121G stands -2.03; under C75U G83C, -1.13.
For C75A U90G U101G the value was not above -4.2; for G71C C79U A115U A120G G133A, not above -4.2.
In the case of C76G U90C, the “polymerase ribozyme fitness (log ratio)” value was not above -4.2.
For A73G U90G A138G the value was not above -4.2; for G74A A91U, not above -4.2.
For A73U G84A the value was -2.32; for G74C A91U A137G, not above -4.2.
For the variant A73G C85A C93A G141C, the “polymerase ribozyme fitness (log ratio)” value is not above -4.2.
For C72G C76A U104A the value was not above -4.2; for C76U C85U A138C U144A, not above -4.2; for C76A C85G A98U C99G C114G, not above -4.2.
For A73G C85A C99U U145G C149U the value was not above -4.2; for C76G G84A G100C, not above -4.2; for G74C G81C, -3.94.
For G74A G140U A142U A147U the value was not above -4.2.
As to C72U A98U, the “polymerase ribozyme fitness (log ratio)” value came out at 0.351.
Under G74A C79U C93A C103A stands not above -4.2; under A73G G80C C116U G136A G141U U151A, not above -4.2.
Turning to A73U G94C U101C C123A, the “polymerase ribozyme fitness (log ratio)” value is not above -4.2.
Turning to C72G C123G, the “polymerase ribozyme fitness (log ratio)” value was not above -4.2.
For the variant C75A C87U A113C, the “polymerase ribozyme fitness (log ratio)” value was not above -4.2.
Turning to G71U U77G C79A C85G, the “polymerase ribozyme fitness (log ratio)” value was not above -4.2.
As for C76G U134G, the “polymerase ribozyme fitness (log ratio)” value is not above -4.2.
For C75G G86C the value was not above -4.2; for A73G G92C, -0.498.
For G71C the value was -2.66; for G71U, -1.93; for G74A A115C, -3.73.
For C76A A142U A147G the value was not above -4.2.
In the case of C75A C96U, the “polymerase ribozyme fitness (log ratio)” value was not above -4.2.
For C75G U82A G84U U101A U139A G141C G143C the value was not above -4.2; for A73C C95A C99G A107U A115G, not above -4.2; for C75G A89C C95U G141A, not above -4.2.
For A73U C87U G88A A110U the value was not above -4.2; for A73U A107U U127C, not above -4.2; for C75G G143C U151G, not above -4.2.
Turning to A73G C87U A120U C123U A147G, the “polymerase ribozyme fitness (log ratio)” value is not above -4.2.
For A73C G92A U101G the value was not above -4.2; for C75G A113U, not above -4.2.
For G71U C72G C87U A107U the value was not above -4.2; for C75G C85U U102G A119U U127C U135G A138U, not above -4.2.
Take A73U C75A U77C G83C C103A A150C: the “polymerase ribozyme fitness (log ratio)” value is not above -4.2.
Under A73G G92A C99U A107U C114G stands not above -4.2; under C75A G86A A97G G136U, not above -4.2; under C75G A107C, not above -4.2.
For A73C A91C C93G G94C A98G C116A the value was not above -4.2.
Take G74U U77G A119U U135A U146C: the “polymerase ribozyme fitness (log ratio)” value is not above -4.2.
Under C72A G88A stands not above -4.2.
With G74C A147C, the “polymerase ribozyme fitness (log ratio)” value is -4.06.
As to C76A C87U, the “polymerase ribozyme fitness (log ratio)” value is -2.16.
For C75A G81A the value was not above -4.2; for G74C C96U C123G, not above -4.2.
Take G71C C87A G128U C131U G152U: the “polymerase ribozyme fitness (log ratio)” value was not above -4.2.
Under A73U C96U G112A stands not above -4.2; under A73C C85U A138U, not above -4.2.
Under A73G A142G stands -1.38; under C75A A89G A91U C99G G112A, not above -4.2.
Under G71U G88U C131G A147C stands not above -4.2.
Take C72U G92U C99U A142C C149A A150U: the “polymerase ribozyme fitness (log ratio)” value was not above -4.2.
Under A73G G94A C105G A121C G143U A147G stands not above -4.2; under C72G C105U, -3.5.
Under G71C U102G G133C G141C stands not above -4.2; under C72A A73C, not above -4.2.
Under C72U G140A U148C stands not above -4.2; under A73G U77A G94A A107G A150C, not above -4.2; under A73G U78A C116A A138G, not above -4.2.
On to A73G G126A, for which the “polymerase ribozyme fitness (log ratio)” value was -0.377.
As for A73U C93U C108U, the “polymerase ribozyme fitness (log ratio)” value is not above -4.2.
With C75U G92U C105G A115U, the “polymerase ribozyme fitness (log ratio)” value is -4.17.
Consider G71U C76A C95U C125U A142C, for which the “polymerase ribozyme fitness (log ratio)” value was not above -4.2.
Consider C76G A91U G117U, for which the “polymerase ribozyme fitness (log ratio)” value is not above -4.2.
Consider G74A G141A, for which the “polymerase ribozyme fitness (log ratio)” value was -2.42.
Under C72G U90C stands not above -4.2.
A73G G86U C99G U101A U135G: the “polymerase ribozyme fitness (log ratio)” value is not above -4.2.
As for G74C C87G, the “polymerase ribozyme fitness (log ratio)” value was not above -4.2.
Under G74U C96A C118U stands -3.97; under C76A A98U G136A U145A, 0.194.
As to C75U G88C U111G C129G U139G, the “polymerase ribozyme fitness (log ratio)” value is not above -4.2.
For the variant C76G C79A A89U G92A A137U G140U A142G G152U, the “polymerase ribozyme fitness (log ratio)” value was not above -4.2.
For A73G G88A C95U U144C the value was not above -4.2; for G74C C99U A142U U146A, not above -4.2; for A73C C93A, not above -4.2.
Under C72U G84A C87A C108G U134G G140A stands not above -4.2.
As to C75U C96U U102G A107G, the “polymerase ribozyme fitness (log ratio)” value was not above -4.2.
As to C75U C103G G126A, the “polymerase ribozyme fitness (log ratio)” value was not above -4.2.
For C76A G80C C105U U134G the value was not above -4.2.
Turning to C72G G92U C93U C116G G140U, the “polymerase ribozyme fitness (log ratio)” value is not above -4.2.
For C75A G80C the value was not above -4.2; for G71A U77C A106U U139A, not above -4.2; for C75G U90A, not above -4.2.
For A73G C76U A142U the value was -2.11; for G74A U82G G83A G86U G126C, not above -4.2; for A73G C85A A98U A107G, not above -4.2.
Take G74A A89C C95G U148A: the “polymerase ribozyme fitness (log ratio)” value was not above -4.2.
As to C76G C93G A97G, the “polymerase ribozyme fitness (log ratio)” value is not above -4.2.
Under C72A C85A U135G G136C stands not above -4.2.
